# Data taken from the supplement of paper PMC8728848.
# The other results are listed elsewhere or left out.
# Key:
# Assay in all cases: glycan array binding signal (z-score within array); higher = stronger binding
# Settings in all cases: glycan notation: IUPAC condensed, linker removed
# [1] = molecular target: Neu5Ac(a2-3)Gal(b1-3)]Neu5Ac(a2-3)Gal(b1-4)]GlcNAc
# How it was run: (§1)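 Negative Z-scores can be read as non-binding. The Z-score is calculated within each array and then averaged across arrays of one protein sequence at different concentrations or buffers and across linkers. Arrays, 3228 in all, were curated from the Consortium for Functional Glycomics database and kept only where the protein sequence was available.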
# Neu5Ac(a2-3)Gal(b1-4)Glc = molecular target: Neu5Ac(a2-3)Gal(b1-4)Glc
# How it was run: as §1
# [2] = molecular target: Neu5Ac(a2-3)Gal(b1-4)GlcNAc
# How it was run: as §1
# [3] = molecular target: Neu5Ac(a2-3)Gal(b1-4)GlcNAc(b1-2)Man
# How it was run: as §1
# [4] = molecular target: Neu5Ac(a2-3)Gal(b1-4)GlcNAc(b1-2)Man(a1-3)[GlcNAc(b1-4)][Neu5Ac(a2-3)Gal(b1-4)GlcNAc(b1-2)Man(a1-6)]Man(b1-4)GlcNAc(b1-4)GlcNAc
# How it was run: as §1
# [5] = molecular target: Neu5Ac(a2-3)Gal(b1-4)GlcNAc(b1-2)Man(a1-3)[Neu5Ac(a2-3)Gal(b1-4)GlcNAc(b1-2)Man(a1-6)]Man(b1-4)GlcNAc(b1-4)GlcNAc
# How it was run: as §1
# [6] = molecular target: Neu5Ac(a2-3)Gal(b1-4)GlcNAc(b1-2)Man(a1-3)[Neu5Ac(a2-3)Gal(b1-4)GlcNAc(b1-2)Man(a1-6)]Man(b1-4)GlcNAc(b1-4)[Fuc(a1-6)]GlcNAc
# How it was run: as §1
# [7] = molecular target: Neu5Ac(a2-3)Gal(b1-4)GlcNAc(b1-2)Man(a1-3)[Neu5Ac(a2-6)Gal(b1-4)GlcNAc(b1-2)Man(a1-6)]Man(b1-4)GlcNAc(b1-4)GlcNAc
# How it was run: as §1
# [8] = molecular target: Neu5Ac(a2-3)Gal(b1-4)GlcNAc(b1-2)[Neu5Ac(a2-3)Gal(b1-4)GlcNAc(b1-4)]Man(a1-3)[GlcNAc(b1-4)][Neu5Ac(a2-3)Gal(b1-4)GlcNAc(b1-2)[Neu5Ac(a2-3)Gal(b1-4)GlcNAc(b1-6)]Man(a1-6)]Man(b1-4)GlcNAc(b1-4)GlcNAc
# How it was run: as §1
# [9] = molecular target: Neu5Ac(a2-3)Gal(b1-4)GlcNAc(b1-2)[Neu5Ac(a2-3)Gal(b1-4)GlcNAc(b1-4)]Man(a1-3)[GlcNAc(b1-4)][Neu5Ac(a2-3)Gal(b1-4)GlcNAc(b1-4)Man(a1-6)]Man(b1-4)GlcNAc(b1-4)GlcNAc
# How it was run: as §1
# [10] = molecular target: Neu5Ac(a2-3)Gal(b1-4)GlcNAc(b1-2)[Neu5Ac(a2-3)Gal(b1-4)GlcNAc(b1-6)]Man(a1-6)[Neu5Ac(a2-3)Gal(b1-4)GlcNAc(b1-2)Man(a1-3)][GlcNAc(b1-4)]Man(b1-4)GlcNAc(b1-4)GlcNAc
# How it was run: as §1
# [11] = molecular target: Neu5Ac(a2-3)Gal(b1-4)GlcNAc(b1-3)Gal
# How it was run: as §1
# [12] = molecular target: Neu5Ac(a2-3)Gal(b1-4)GlcNAc(b1-3)Gal(b1-3)GlcNAc
# How it was run: as §1
# [13] = molecular target: Neu5Ac(a2-3)Gal(b1-4)GlcNAc(b1-3)Gal(b1-4)GlcNAc
# How it was run: as §1
# [14] = molecular target: Neu5Ac(a2-3)Gal(b1-4)GlcNAc(b1-3)Gal(b1-4)GlcNAc(b1-2)Man(a1-3)[Neu5Ac(a2-3)Gal(b1-4)GlcNAc(b1-3)Gal(b1-4)GlcNAc(b1-2)Man(a1-6)]Man(b1-4)GlcNAc(b1-4)GlcNAc
# How it was run: as §1
# [15] = molecular target: Neu5Ac(a2-3)Gal(b1-4)GlcNAc(b1-3)Gal(b1-4)GlcNAc(b1-3)Gal(b1-4)GlcNAc
# How it was run: as §1
# [16] = molecular target: Neu5Ac(a2-3)Gal(b1-4)GlcNAc(b1-3)Gal(b1-4)GlcNAc(b1-3)Gal(b1-4)GlcNAc(b1-2)Man(a1-3)[Neu5Ac(a2-3)Gal(b1-4)GlcNAc(b1-3)Gal(b1-4)GlcNAc(b1-3)Gal(b1-4)GlcNAc(b1-2)Man(a1-6)]GalNAc
# How it was run: as §1
# [17] = molecular target: Neu5Ac(a2-3)Gal(b1-4)GlcNAc(b1-3)Gal(b1-4)GlcNAc(b1-3)GalNAc
# How it was run: as §1
# [18] = molecular target: Neu5Ac(a2-3)Gal(b1-4)GlcNAc(b1-3)Gal(b1-4)GlcNAc(b1-3)[Neu5Ac(a2-3)Gal(b1-4)GlcNAc(b1-3)Gal(b1-4)GlcNAc(b1-6)]GalNAc
# How it was run: as §1
# [19] = molecular target: Neu5Ac(a2-3)Gal(b1-4)GlcNAc(b1-3)Gal(b1-4)GlcNAc(b1-6)[Gal(b1-3)]GalNAc
# How it was run: as §1
# [20] = molecular target: Neu5Ac(a2-3)Gal(b1-4)GlcNAc(b1-3)Gal(b1-4)[Fuc(a1-3)]GlcNAc
# How it was run: as §1
# [21] = molecular target: Neu5Ac(a2-3)Gal(b1-4)GlcNAc(b1-3)GalNAc
# How it was run: as §1
# [22] = molecular target: Neu5Ac(a2-3)Gal(b1-4)GlcNAc(b1-3)[Neu5Ac(a2-3)Gal(b1-4)GlcNAc(b1-6)]GalNAc
# How it was run: as §1
binder,measurement,setting,value
PLU (Photorhabdus luminiscence) (protein) HHHHHHENLYFQSSIVFASIDPRSNPLQTSSQNYVDIPGLKLDVSKYSNSPCLTALITLNIPTPYASGNNFPGGNFAIVTDQGEQLAYGGFTYSSKIPENSGRMPFTLVARYSLASNVSTIKAQWSNIRGSTVHIDSYASISAVIQCNQLV,glycan array binding signal (z-score),[1],-0.2
same,glycan array binding signal (z-score),Neu5Ac(a2-3)Gal(b1-4)Glc,-0.23
same,glycan array binding signal (z-score),[2],-0.278
same,glycan array binding signal (z-score),[3],-0.192
same,glycan array binding signal (z-score),[4],-0.251
same,glycan array binding signal (z-score),[5],-0.219
same,glycan array binding signal (z-score),[6],-0.246
same,glycan array binding signal (z-score),[7],-0.216
same,glycan array binding signal (z-score),[8],-0.201
same,glycan array binding signal (z-score),[9],-0.348
same,glycan array binding signal (z-score),[10],-0.271
same,glycan array binding signal (z-score),[11],-0.244
same,glycan array binding signal (z-score),[12],-0.324
same,glycan array binding signal (z-score),[13],-0.256
same,glycan array binding signal (z-score),[14],-0.175
same,glycan array binding signal (z-score),[15],-0.272
same,glycan array binding signal (z-score),[16],-0.168
same,glycan array binding signal (z-score),[17],-0.289
same,glycan array binding signal (z-score),[18],-0.263
same,glycan array binding signal (z-score),[19],-0.228
same,glycan array binding signal (z-score),[20],-0.267
same,glycan array binding signal (z-score),[21],-0.224
same,glycan array binding signal (z-score),[22],-0.363
